Laboratory results published in the supplement of paper PMC10681739.
± gives the standard deviation of the averaged measurements. Over roughly 4,000 sequences, “arbitrary fluorescence units” has its median near 830; the highest 2% begin near 6,500. The list lacks most of the strong results.

Target: RUNX1 (UniProt Q01196)
Experiment: RUNX1 binding intensity (PBM fluorescence), RUNX1 alone (arbitrary fluorescence units); higher = stronger binding
Details: RUNX1 concentration 2 nM; ETS1 concentration 0 nM
Method: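 gcPBM on 36-bp genomic-derived probes (partner site mutated) containing one RUNX1 site and no ETS1 site. Recombinant human RUNX1 (2 nM) was incubated alone or with ETS1 (25 nM) and detected by anti-RUNX1 antibody fluorescence. Values are medians over 4 replicate spots (not normalised). The probes sit in constant array flanks that are not printed.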
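Note: Full-length recombinant human RUNX1 bound to double-stranded DNA microarray spots, detected with an Alexa488-labelled secondary antibody after the anti-RUNX1 primary, read as scanned spot fluorescence.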

Chain of UniProt Q01196 (Q01196 whole entry): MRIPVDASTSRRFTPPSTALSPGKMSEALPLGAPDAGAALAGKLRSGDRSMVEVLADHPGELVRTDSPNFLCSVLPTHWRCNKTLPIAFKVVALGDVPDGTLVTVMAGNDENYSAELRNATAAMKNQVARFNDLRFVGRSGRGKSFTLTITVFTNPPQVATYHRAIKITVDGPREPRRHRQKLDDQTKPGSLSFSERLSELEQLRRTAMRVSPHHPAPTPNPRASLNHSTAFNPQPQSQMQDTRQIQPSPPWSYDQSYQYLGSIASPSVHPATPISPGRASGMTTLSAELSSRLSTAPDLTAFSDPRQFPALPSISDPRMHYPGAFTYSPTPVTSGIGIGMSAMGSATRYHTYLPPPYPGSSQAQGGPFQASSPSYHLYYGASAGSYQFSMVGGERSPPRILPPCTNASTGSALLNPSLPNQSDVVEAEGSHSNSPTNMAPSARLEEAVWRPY

Row | Sequence | RUNX1 binding intensity
1 | CCTTCAGGCCGCAGCGCGGGGCACGCCGGGGAGCGC | 737
2 | CGGGCAGACTGCGGCCCTGGACGGGAATCGGCGGCC | 643
3 | TGCACTCCAGTTCCCCTCGCCCGCAGTGAGCAGTCA | 816
4 | GGCCCATGAAAGAGGCAGGGGTGCGGTTTCCCTCCG | 1000
5 | GAGAAGGGTGCGGTCTAGGGAGGAGGAGGTGCAGGT | 1180
6 | GTGCGCCTGCGGCGGCGACGAAACCGTAAGACAAGC | 689
7 | CCGCTTTTTGTGGGCCGGGTGGGTTACCTAATCTGG | 842
8 | GCCACCGCGCCCGGCCAAGCCTTTACGTCCTTTTAC | 928
9 | CGCCGCGGCGTATGGAGGTGCCCAGGGCCACAGACC | 752
10 | CGGAGGCCGCTTGCGGGCTCCCGGAGGCGGCGCCCT | 616
11 | AGGTTCAGGGGCTACACCCAGCCCAGGCCGCAGGCA | 798
12 | AGATTCTAGGCAGTGTCTGTAGCCGCAGCTGAGGGT | 736
13 | CTCTGCTTCATGTCTTTGAATGCCTCTGTGGTTTTC | 1340
14 | AACACCACCTCCTACTGTGAAACCACACTGTATTTG | 1180
15 | GCAAAGATACGTCCTTCTCCCCACAGACTAAGTTTC | 974
16 | CTTCGCGGTGACGGGGAACTACATGTCCCAGAAGGC | 844
17 | TCGCACTGTCTGTGGTTCTCTCCTTCATGTCAGCTG | 1110
18 | CCCGTTCTCTGGAAGTGCGCGGGTTGGAGCTGAAGC | 751
19 | CGTCGCTGCGGTCCCTGCCGCCGAAACCATTAAGGA | 950
20 | ACAGCGCTGACCGCGGAGGTCCAACCGTAAGAATGT | 1300
21 | GTGTGGTCAGATACAGCCCAGCCACATGAAGAGGCA | 727
22 | ATCTTACGTAGCAGTCAGGTGTTTTGTGGTTTGCAG | 1330
23 | GCTGCGCTTCTGCGGGATAGACTTTCGGCCGCCGGC | 788
24 | GTGCCTCACCGCTCCCGGCGCTGCGGGATGACGTCA | 760
25 | CTGCCCAGCCACTGCCTGCCCAACCACAGACTGACA | 1260

Row | Sequence | RUNX1 binding intensity
26 | CCCCTCCGCGTGGGTTGCACCTGCTAACCACAGAGC | 1010
27 | CAGACCCGGCGTGGACGAAGCTCGGGAACCACAACA | 784
28 | TGGGTTGACCTAGCCACAGGCAGGATCTGGCTGCCA | 654
29 | GCTTCAGGCTTACGGGGCGCACACTGCCGCAAAGGC | 706
30 | AAACCAGAGAAGAAGTGGCACCACATGGCCAGACTG | 773
31 | TATCATTTTTACCACAGAGGTACAGGCAATTGTTTC | 1710
32 | GGGTCTCCAGCAAGGTTGGAGCTGAACCCGCGCTGC | 624
33 | CCGTACTTTCGCTTTACTCAGATTTTGGACCGCGGG | 1320
34 | TGTAGAGGAGGTGGTTTCCATCACGCAAGGCCGAAG | 766
35 | CCTGACTCTGGGTCTCCTCCCAGCCACAGACACCTG | 1000
36 | AGAGCAACACGATGCAAATAACCACAAGCAAGAATA | 1210
37 | AGCCTCTTGCTGCTCCTGATCAGCGGTTATCTTGCT | 731
38 | TGGTTGCCGGGCTGGGGTTAGAATAGGCCACAAGGT | 699
39 | TTGGTTGTGTGGTCGCGTCTCGGCAACCGGTAGCGC | 757
40 | CTCGCCCCATCTCCCGTAAATATCAGCCACAGACCA | 1410
41 | TGCTTACGGCTTGCAGGGAATAACTTGTGGTTTCCA | 903
42 | GGCTTGCGCCTGCCGAGCGGCCCCGGACCGCAGGCC | 746
43 | GACGCATAAACATGAAGGCCTGCGGGAGGGCCCGCC | 696
44 | ACCTCCGCTGACCACCCTGCAGGCGCAAGAACGGCC | 1090
45 | TGTATAACGTCCTCATGTTCTGTGGGTGAGTTGAGC | 753
46 | CTGAAGCCACAAAATGACGTCACTTTGCTGCTTTCT | 782
47 | AAACAAAGTCAAACCACAGCACTTCATGCATTCTGG | 873
48 | CCGGGTGGCCACAAACATCACCCGTAAGCCTGAATA | 871
49 | TTGGGATTGTACCACACAAAGCACTTGCTGCACTGC | 754
50 | CTGGTAAGGGAGCTGGCCAAAACCCACTGAAACCAA | 777

Row | Sequence | RUNX1 binding intensity
51 | TGGCATGATGCCGTTAAATATGTAACCACATGTCTC | 872
52 | AAGCACATGTGGTGGGGCTCTTGCGTGCTGGCCACA | 605
53 | AGGCTTTCTGTTTTATCTCGTGTGTGTGGTGCACCA | 886
54 | TGCACACCGCGCCGGGGTAGGAACGTCCTCCCACCT | 809
55 | CGGTGTGAGGTGTGGCTTTGTCTTCATGAGCGGTGT | 773
56 | GCATGCCCGACCGCACCCGCGGACTGGACCTACTTT | 1260 ± 160
57 | GCCTGGCCGCAGCTGCTGCTGAGCGAAAGTCTCTGA | 752
58 | CCAGGCGCAAGCGGCCGGGAGTAGCGCTGCGGTTGG | 701
59 | GAGGAAAGGCAGTCAAGGCCAGGGCCGCAGAGGCCA | 753
60 | GGGGACGAAGCGGTCTCGGTTCAGCCCGGCTGGGAG | 692
61 | GCCTTGCGGCGCAGGCCGCTCCCGTATGTGTGCCTG | 924
62 | CTGCGCCTCCGCGGCGCCGCTCTGACCGCGCGAGGG | 723
63 | TATTCTTGCTTGTGGTTATTTGCATCGTGTTGCTCT | 3110
64 | GCCAAGAGGGAGACCGCGTGCCTTTCGTGCAGCCGA | 762
65 | AGGAGTGTCACCTCCTCTTTCCTCACCACAGCCTCC | 1260
66 | TGTGTGGGTTTCTGGACTATGGGGCTCCCTGGAAGT | 703
67 | TGGAAGCGGCTTACGGGGTGAATGCGGTTGGATCGT | 896
68 | TCTGTCGCACATACGGTGTGAGCTGCGGGGCGGTGG | 787
69 | CGGGACCGCGGGCGGACTCAGCCCAGCAAGCGGCAG | 764
70 | AGAGCGAGGCTGCGGGACCCCAGGCTGGGGGACAGG | 727
71 | GGGCAGGTGCTGCCTTCTCTCAGAAACCACTCCTCC | 716
72 | GTGCAGGGCCCGGGAGCTCAGTGTGGTTAAAGACAT | 770
73 | AAAGCCAACCACCAACCGAGAGCGAAAGTCGGGGAC | 827
74 | GCTTTGCAGTGTCCTCTATGGAACACCACACACAGT | 809
75 | CACCTCTCAGCAAGGACCGAGCCCGCAAGTCCCTCA | 1050

Row | Sequence | RUNX1 binding intensity
76 | TCCTCCATGCAGCAAAACCTCTGTGGTCTGGGAGCT | 886
77 | ATAACTTGCGGCAAATGCTGGAGGCAGTACCGCCTT | 840
78 | AAGTGAGCCATGTGGGTACGTGCGCAAGAATATTCA | 776
79 | AGGTCCCGGCGAAAGTGACCGAAAGTAACCGCCGGG | 793
80 | CCGCTGAGCCTTCGGCCCAGGCCACCCGCACTCAGC | 680
81 | GAATGCGGGGGTGGGCACCCTATTCTCACCTCCCCT | 914
82 | TCATAAGGCAGTGGAGTGTAGTAACCACAGGCCCCG | 893
83 | CCGTGGATGGAGACGCTGCCAACCGCAACAGAAATG | 2340
84 | GAAGTGGACACGGGACTCGGCTGCGGCTCCATGGTC | 764
85 | GGGGCCTGTGGTGAACTGGAGAGGAGATGCTGCATT | 784
86 | CCCCAGCGGTTTTCCAGCGTACGCACAAGTGCCGCC | 982
87 | CAACTCCCGGGGCCGGTTGCCTGGCAACCGCAGGAG | 1000
88 | GGCGGCGGGCTGCGGGCGCGGCCGTACGGGAGTTCG | 859
89 | CCTAAAACCCAGTTTCGGGACCCACCGCTGAAGGTC | 824
90 | TCTGCGGGACTAAGAGGCGGGGAAAGGGAGCGAAAG | 731
91 | ACAGTGTCCTTGCTGTGATGTCAGCCCCCGCCGCAG | 719
92 | AGAGGCAGTAAATTCTAACAGTGGAAACCACAGATT | 855
93 | CTCACCGCAGGCCTGTGCTGGGGGTGCTCCCTGCTC | 3770
94 | GTGTGAAGGCAGTGTGAGATCAAACCACAGCTGGGT | 815
95 | GGCCTGCGGCTGCTTCAGGCTCTCGGGAATGACGTT | 629
96 | TGACGGTTACCGCTTCAGGTCAGGACCGGGAGTGCC | 677
97 | ATGTTCTTTGTGGTATCGCTTCGTGTGTCCTAGCAC | 2770
98 | ACCATAAGGACCGTAAGCAGAGACCACACTGGTGCT | 816
99 | CCATAGCGACCGCGGCCGAGCGAACCGGGAATCGGC | 791
100 | CTGCGTCCCGAAAGGAGCGAGCTTGCGGAGCGTGAA | 718

Row | Sequence | RUNX1 binding intensity
101 | ACGTCATCCCGCAGGGCTGGCGCGCCCGGCGCAGTC | 779
102 | CTGTCAGCCCCGCAGCCCCTGCTCCCTGGCTGGCTG | 805
103 | GGTGAAATTAACCACAGAAATAATGGGAACTAGAGA | 4660
104 | TAACCCTGTTTTACCACATCATTTCGTGCTGAAGAG | 1280
105 | AAAGGCCGAAGGGGGGCAGGGAACCCACAAAACAGA | 877
106 | GCCTGGTACCACTAAAAAGATCAACACCGGGAATAA | 863
107 | AGGCAAACAGCATGTTCCTCTCCCACATGCAGACTT | 755
108 | GCTTTCTGTGGTGACTGGGCGCTTTCTGTTTTCTCA | 1100
109 | ACCCCCACCCCCGCATTCTTGTGCGAGGAGGTCATG | 757
110 | TGCACCTCCGTTTGGGCAGGGCTGCGGGCCGGAGGG | 683
111 | CAGATTCAAGCAAGTGGTGGTGGTTTGGTGTCGTTG | 775
112 | AGGTCTGTGTGTGCCACAGAGAGGAGGGGGGCAACC | 824
113 | CGACCCGGGGATCTGAGCGGAGTCTGCGGCTGCGCT | 702
114 | GCAGTTCATACCACAAAACCCATCGTTTCGTGCAAC | 1500
115 | CCTGTCCCCCAGCCTGGGGTCCCGCAGCCTCGCTCT | 873
116 | AACAGACAGGGTGTGGCCTCTGCCAAAACCACCATC | 716
117 | AGCTCCACCTGAAACGGCCTGGCCGCAGCCAATCAG | 902
118 | GTGCGGCGGGAATCGCGTTCCCCGGCAACCGCGCCC | 767
119 | GATGCACCTCCGCGGGAGGCAAGCGGTTGCCCTGGG | 694
120 | GACCTTCACCCACAAGAACCACCTCCTCTCAGTAAA | 1950
121 | TGGAGCCGGGGAGACGGCCAAGGTTGCGGGAGTCTC | 649
122 | CCCTTTCTGTGAGGGAGGTTCCAGTTCCCACAGCGG | 742
123 | CCCTTGCTGCCCCCATGGCTCCCCTGAGGTTTTTCG | 1350
124 | GATGACGTCACCACAGTAAGACAACAGCATACCGCT | 835
125 | GCACACTGGAACTCACACCTGAAACCACAGAACCAA | 1660
